Experimental data as given in the supplement of paper PMC11417369.
The list shows a part of the results.

Each sequence was assayed on PfAP2-HC AP2 domain (GST-tagged) (assay: gcPBM binding intensity (ln(normalized median fluorescence intensity)); higher = stronger DNA binding).
Procedure, shortened: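 GST-fused DNA-binding domains of P. falciparum, expressed in E. coli, were applied at about 25 μg on average for 1 h to an Agilent 4 × 180k array of primer-extended double-stranded 36-bp intergenic genomic probes and negative controls. Binding intensity is the highest Masliner-normalised natural-log median intensity across replicate spots of either probe orientation, measured with Alexa488 anti-GST antibody and a 488 nm scan.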

| Sequence | gcPBM binding intensity (ln) |
| --- | --- |
| AAATGGAGTTAATATTGTACATATATATATATATAT [XGTACX_site5452] | 9.76 |
| TTTTTTTTTTTTTTAACACACATATAAATATTTTTC [CACACA_site6985] | 9.56 |
| TTTTATTATATGGAGGTGCATATATAATAATATAAT [GTGCAC_site9477] | 9.47 |
| ATCGGTAATATTAACACACACATTTATTTATATTTA [CACACA_site6638] | 10.1 |
| TTCTTTTTAAATATACTAATTATGTATAAAACAGAA [GTGCAC_negctrl_site131] | 9.34 |
| ATGTATGTAATAAAAAGTACATATGTTCATAATAAA [XGTACX_site842] | 10.1 |
| TTTTATAAATATTTTTGTACACATTTAAATATTATT [XGTACX_site4973] | 9.51 |
| TTTTCATATATTTATTGTACATATTACATATATAAT [XGTACX_site2425] | 9.85 |
| ATTTATAAATCAAAGTGTACATATGTTTTATTTTTT [XGTACX_site804] | 9.83 |
| AGAGAGAACGGTATAACATGCAATAAATTTCAGAAG [TGCATGCA_site423] | 9.6 |
| TTTTTTTAATAAAAGTGTACCAAATTATATACACAT [XGTACX_site6811] | 9.65 |
| AACACATACATATATGCACACATTTTATTCCATTAT [CACACA_site2834] | 10.1 |
| TTTTTTTTTTTTTGTACATGCAAATATTATGAACAC [TGCATGCA_site571] | 9.56 |
| GACAAATTAATCGATTGTACACAATTTGTTTCGTTG [XGTACX_site35] | 9.8 |
| TTCACATATATATAACGTACATTATTATTATTCTGA [XGTACX_site6006] | 9.63 |
| TTTTTTTTTCCTTCTTGTACATATTATATATACATA [XGTACX_site5988] | 9.7 |
| TGGAACGTAATAAAATGTACATACGTTTTTCATATG [XGTACX_site6229] | 9.73 |
| TCTTATTTAATTAAACAAAAGAAAAAGAAAGAAAAG [CACACA_negctrl_site1569] | 9.43 |
| TACAAGTATAAATAAGCACACATGTGTATATGTACA [CACACA_site7911] | 10 |
| TTAGAAGGGATTAAAGTGCAAAATAGGATTAGAGTA | 9.76 |
| GTTTTACACAGACATGCATGTGAAAATTTGATGGTA [TGCATGCA_site308] | 9.85 |
| TATCATCATGTATGTACACACATACCTATATTATGT [CACACA_site6768] | 10.2 |
| TTTATTTCTATATTTACATGCAAAGGGTTAGTTATA [TGCATGCA_site983] | 9.46 |

| Sequence | gcPBM binding intensity (ln) |
| --- | --- |
| TTTTTTTTTTTCATGTGTACATATATTTTCACTTTA [XGTACX_site4475] | 9.76 |
| GATCTTTTTTTTCTTACTTTACAATTTTTTTTTTAC [XGTACX_negctrl_site101] | 9.73 |
| AAGAAAAAGAATAGACGGACAACTAATATAAAATAT [XGTACX_site7905] | 9.8 |
| AAAATAACAAAATAAAGTACTTTTAAAAGATATAAT [XGTACX_site7632] | 9.84 |
| GATTTTCTAATTTCTACACACATATAAGAATATTCA [CACACA_site7340] | 9.7 |
| TTTTTAATTCAAACAATAATATGTTATATTTCAAAT [TGCATGCA_negctrl_site27] | 9.44 |
| TGTATAAAACATGGGTGTACTGAACTCAATCATATA [XGTACX_site1215] | 9.61 |
| TAAAATTATATAAAGGAACACACATTTTATTTTATT [CACACA_site8423] | 9.68 |
| AATATATTTTAATATACACACATATCTGCTCTTTAA [CACACA_site6130] | 9.8 |
| TCATTGTTAAGCTGAAGTACTTATAATTACATCGAG [XGTACX_site6340] | 9.45 |
| TATTAGCATGTTATTACACACAATATAAAATATATA [CACACA_site1401] | 9.66 |
| TGTCAATCATATAAATGTACATTTTAAATGAGGTGT [XGTACX_site7391] | 9.62 |
| GAAAAGAAAAATAAACGTACATAAATATTAACATTA [XGTACX_site8213] | 9.61 |
| CAAATAAAAATAAGGAGTACAATTAAAAAAGGAAGG [XGTACX_site4366] | 9.8 |
| AAAATAAAAAAGTGTACACATATTAAAATGTATTTA [CACACA_site4424] | 9.76 |
| ATTATATAAATTATATGTACGTATTTTTTTTTTTTT [XGTACX_site1908] | 9.62 |
| AATTAAATTACTTATACACACATAAAATGTCTGTAT [CACACA_site997] | 9.97 |
| AAATTATGAACATATTGTACATATATATATATATAT [XGTACX_site8269] | 9.73 |
| CATGTATGTACCATGGTGCAACAATATTTTTAACAA [GTGCAC_site9597] | 9.45 |
| AAGATAACAAGTAATCAATCTAATTATTAATTATAT [CACACA_negctrl_site1713] | 9.52 |
| AAAAGAAAAATGTCATATGATATCATATATTTTATA [GTGCAC_negctrl_site185] | 9.55 |
| AAAAATATGTGATAATGTACTTTTCATTTTTATTTT [XGTACX_site8544] | 9.63 |
| ATAATTATATATATATGTACATATTATATATATATA [XGTACX_site4526] | 9.66 |

| Sequence | gcPBM binding intensity (ln) |
| --- | --- |
| CATAAATACATACATACACACATATTTATATTTATA [CACACA_site7071] | 10.1 |
| ATATACATATATATATGTACTGAAAAGAAAAGAATT [XGTACX_site150] | 9.82 |
| TGTTTTTAAATTTAAATCAAAAAATAAAATAAAATA [GTGCAC_negctrl_site355] | 9.15 |
| TTTTTATTTTATAATATATTCCTTTTCCTTTCTTTC [CACACA_negctrl_site245] | 9.5 |
| TACATATATATAAATACACACACACCCACCTTATAA [CACACA_site9346] | 10.6 |
| TTATTAGAAAAATGCACACCAAAAAAAAAAAAAAAA [CACACA_site2522] | 9.53 |
| ATACATATACACATATGTACATATGAAAAGAAAAAT [XGTACX_site6445] | 10.1 |
| TATATATATTGTGTATGTACATATATATAAATATTG [XGTACX_site433] | 9.65 |
| TTCATTTGAAAACTGTGTACTTAAAAATATACATAT [XGTACX_site176] | 9.59 |
| AATATAATATAATGCACACATAAACAAAAAAAAAAT [CACACA_site1304] | 10.2 |
| ATATATTTAAATAAATGTACAAATCATAAATTCAAG [XGTACX_site1417] | 9.69 |
| TATATATTTTATTATTGTACGAATTATTTATTTTAC [XGTACX_site8105] | 9.7 |
| TACATCATCTATAAGGTGCATTTTAGTTCTATTAAA | 9.52 |
| TTTTTTCTAATATCTTTGCCTTTTTCTTTATTTATT [CACACA_negctrl_site1053] | 9.87 |
| ATATATATATATATATGTACATATGTATGTGTTTGT [XGTACX_site397] | 9.93 |
| TATACTCATTTTTATACACACTTGTTTTATAAAACG [CACACA_site4561] | 9.78 |
| AAATTTATTATGAACATACACACAAAAAAAAAAAGT [CACACA_site2053] | 10 |
| CTATATGTATAAAGTTGTACAGTTTTTCAAAGTTAA [XGTACX_site6652] | 9.53 |
| TTTTTTTTTTTTTTGTGTACATATAATGCACATTAT [XGTACX_site6505] | 9.6 |
| TACTTTTATATAGAAAGTACATACAATTCATAGAAT [XGTACX_site2182] | 9.45 |
| TATTGAAACCCACACGAACACACGTATTTCATAAAC [CACACA_site251] | 9.91 |
| TATAAAAAGCATAACACACACATGTCAATATAAATA [CACACA_site6648] | 10.1 |
| ATGGACATTTTATAAATCACAATGGATATTTTATAA [CACACA_negctrl_site1830] | 9.39 |

| Sequence | gcPBM binding intensity (ln) |
| --- | --- |
| AAACCGTGGGAGCACACACACACACCCACCCATATA [CACACA_site332] | 10.4 |
| ACAAAACAAAACAAAAGTACACAAAATAAATAAGAT [XGTACX_site6497] | 10 |
| ATAATAACAAAATATTAACACACATAACATATTATA [CACACA_site8906] | 9.9 |
| AATCCTTAAAATTAACGTACGAAATGAATTTATTAA [XGTACX_site956] | 9.53 |
| TGGAGGTCATTACACAGTACCCAGGAAATCTACGGA [XGTACX_site2004] | 9.37 |
| ATAAATAAATACTAGGCACACACACCGATATATATA [CACACA_site8649] | 10.4 |
| TATTAATCCTTTTGCTTGGAAACATTCAAAAGGAAG [CACACA_negctrl_site1129] | 9.27 |
| AAAATAAACCCAGACACACTCATTAAAAAATATCAT [CACACA_site5903] | 9.93 |
| ATATATATAAAATATGGTACAGAAAAAGTCTTGTTT [XGTACX_site8868] | 9.83 |
| TTCTGTCAATATGCTTGTACGAAATATTTCGTAATT [XGTACX_site3182] | 9.93 |
| ATTGTATTAAAATGCACACATATCAAGAGGAATTTT [CACACA_site283] | 9.86 |
| ATGTATATATTCAATTGTACATGTTATATTTACACA [XGTACX_site1125] | 9.78 |
| AAAGAATAATTAAATACACACATATTGCAGTAAAAA [CACACA_site7201] | 10.1 |
| TGTAAAATATAAAAAGTGCATTTCTTTTAATATGAT | 9.49 |
| ATATTAAAATTTTAATGTACATGCGTATGTAGGAAT [XGTACX_site1673] | 10.1 |
| AACATATATTTTTAATGTACAAGGTTGTAAAGAACT [XGTACX_site1405] | 9.88 |
| TATATTATATTTTTATGTACTTATTTATTTTGTTTC [XGTACX_site6145] | 9.83 |
| AAAGATATAAATTACTGTACTAATGAAATTGGTAAA [XGTACX_site3582] | 9.68 |
| CAATTGATATTGAAATGTACTTTTTAGATGAACCTT [XGTACX_site2354] | 9.42 |
| TTAAATAATGCCACCAGTACCCACTGAAAGAAAAAA [XGTACX_site5013] | 9.74 |
